Reference: PubChem BioAssay AID624255 (Broad Institute, 2012)
About 4,600 (6%) of roughly 77,000 compounds were called active. This list was built around the results that the source calls inconclusive (neither active nor inactive); the mix of calls is not that of the screen.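 Rule for the calls: active = mean inhibition above about 93%, with at least 55% of replicates each passing it (limit read from the data, passing the limit was not always enough); inconclusive = only one of those two conditions holds; inactive = neither condition holds.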

Experiment: T. cruzi intracellular proliferation inhibitors, primary screen, cell-based, beta-gal Tulahuen parasites, NIH3T3 host, luminescence (AID 624255)
Settings: T. cruzi beta-gal in NIH3T3, GalScreen luminescence, 90 h; at 8.34 µM; stronger effect = higher value

Row | SMILES | inhibition
1 | COc1cccc(NC(=O)N[C@@H]2CC[C@H](CC(=O)Nc3ccc(-c4ccccc4)cc3)O[C@H]2CO)c1 | inactive: -23.5%
2 | Cc1noc(C)c1S(=O)(=O)Nc1ccc2c(c1)CC(=O)N([C@@H](C)CO)C[C@@H](C)[C@H](CN(C)Cc1ccc(Oc3ccccc3)cc1)O2 | inconclusive: 99.3%
3 | C[C@@H]1CN([C@@H](C)CO)S(=O)(=O)c2ccc(-c3cccnc3)cc2O[C@@H]1CN(C)C | inconclusive: 95.5%
4 | O=C(C[C@@H]1CC[C@@H]2[C@H](COC[C@@H](O)CN2Cc2ccccc2)O1)N[C@@H]1CCN(Cc2ccccc2)C1 | inconclusive: 96.3%
5 | COc1ccc(S(=O)(=O)N(C)C[C@H]2OCCCC[C@H](C)Oc3ccc(NS(=O)(=O)c4ccc(C)cc4)cc3C(=O)N([C@H](C)CO)C[C@H]2C)cc1 | inconclusive: 104%
6 | COc1cccc(S(=O)(=O)N2CC[C@@H]3[C@H]2c2cc(C#Cc4cccnc4)ccc2N[C@@H]3CO)c1 | inconclusive: 95.4%
7 | COc1cccc(-c2ccc([C@@H]3[C@@H](CO)N4CCCCN(CC5CCOCC5)C[C@@H]34)cc2)c1 | active: 98.4%
8 | Cc1noc(C)c1NC(=O)N(C)C[C@@H]1OCc2cn(nn2)CCCC(=O)N([C@H](C)CO)C[C@@H]1C | inconclusive: 102%
9 | COc1ccc(-c2ccc3c(c2)[C@@H]2[C@@H](CCN2C(=O)c2ccc(F)cc2)[C@H](CO)N3C)cc1 | inactive: 17.1%
10 | Cc1noc(C)c1S(=O)(=O)Nc1ccc2c(c1)C(=O)N([C@@H](C)CO)C[C@@H](C)[C@@H](CN(C)Cc1ccc(C(=O)Nc3ccccc3N)cc1)O2 | inconclusive: 115%
11 | COc1cccc(C#Cc2ccc3c(c2)O[C@@H](CN(C)C(C)=O)[C@H](C)CN([C@@H](C)CO)S3(=O)=O)c1 | inconclusive: 99.6%
12 | Cn1cnc(S(=O)(=O)N2CC[C@@H]3[C@H]2c2cc(-c4ccccc4)ccc2N[C@@H]3CO)c1 | inconclusive: 99.1%
13 | C[C@H](CO)N1C[C@H](C)[C@H](CN(C)Cc2ccc(Oc3ccccc3)cc2)Oc2c(NC(=O)NC3CCCCC3)cccc2C1=O | inconclusive: 102%
14 | C[C@H]1CCCCO[C@@H](CN(C)C(=O)NC2CCCCC2)[C@@H](C)CN([C@@H](C)CO)C(=O)c2cc(NS(=O)(=O)c3ccc(Cl)cc3)ccc2O1 | inconclusive: 96.1%
15 | C[C@H]1CN([C@@H](C)CO)S(=O)(=O)c2ccc(C#CC3CCCC3)cc2O[C@H]1CN(C)CC1CC1 | inconclusive: 107%
16 | C[C@@H]1CN([C@H](C)CO)C(=O)c2cc(NS(=O)(=O)c3ccc(Cl)cc3)ccc2O[C@@H](C)CCCCO[C@@H]1CN(C)C(=O)C1CCCCC1 | inconclusive: 98.6%
17 | CNC(=O)C[C@H]1CC[C@H]2[C@@H](COc3ccc(NC(=O)CC(F)(F)F)cc3C(=O)N2C)O1 | inactive: -1.5%
18 | C[C@@H]1CN([C@H](C)CO)C(=O)c2cc(NS(=O)(=O)c3ccc(Cl)cc3)ccc2O[C@@H](C)CCCCO[C@H]1CN(C)C(=O)Nc1ccccc1 | inconclusive: 96.7%

Row | SMILES | inhibition
19 | C[C@H]1CN([C@@H](C)CO)S(=O)(=O)c2ccc(C#CC3CC3)cc2O[C@@H]1CN(C)CC1CCOCC1 | inconclusive: 97%
20 | CN(C)CC#Cc1ccc([C@@H]2[C@H](CO)N3CCCCN(C(=O)Nc4cc(F)ccc4F)C[C@@H]23)cc1 | inconclusive: 95.5%
21 | COc1ccc(-c2ccc([C@@H]3[C@@H](CO)N(C(=O)c4cccc(F)c4)[C@H]3C#N)cc2)cc1 | inconclusive: 97.4%
22 | C[C@H]1CN([C@@H](C)CO)S(=O)(=O)c2ccc(-c3cccc(C#N)c3)cc2O[C@@H]1CN(C)C(=O)Nc1ccccc1F | inconclusive: 91.4%
23 | C[C@H]1CCCCO[C@H](CN(C)C(=O)Nc2ccc(C(F)(F)F)cc2)[C@@H](C)CN([C@@H](C)CO)C(=O)c2cc(NC(=O)Cc3ccccc3)ccc2O1 | inconclusive: 127%
24 | O=C(C[C@@H]1CC[C@H]2[C@@H](COC[C@@H](O)CN2Cc2nccs2)O1)NCc1ccc(Cl)cc1 | inactive: 11.1%
25 | CS(=O)(=O)Nc1ccc2c(c1)[C@H]1C[C@H](CC(=O)N3CCCCC3)O[C@H](CO)[C@H]1O2 | inactive: -74.4%
26 | COc1ccc(CNC(=O)C[C@H]2CC[C@@H](NC(=O)c3cccc(F)c3)[C@@H](CO)O2)cc1 | inactive: 14.6%
27 | C[C@H]1CCCCO[C@H](CN(C)C(=O)C2CCCCC2)[C@@H](C)CN([C@@H](C)CO)C(=O)c2cc(NC(=O)Nc3ccc4c(c3)OCO4)ccc2O1 | inconclusive: 86.7%
28 | OC[C@@H]1[C@H](c2ccc(/C=C/c3ccccc3)cc2)[C@H]2CN(CCC(F)(F)F)CCCCN12 | active: 101%
29 | C[C@@H]1CCCCO[C@H](CN(C)C(=O)Nc2ccc(F)cc2)[C@@H](C)CN([C@H](C)CO)C(=O)c2cc(NC(=O)Nc3ccc(C(F)(F)F)cc3)ccc2O1 | inconclusive: 95.9%
30 | Cc1ccc(S(=O)(=O)Nc2ccc3c(c2)CC(=O)N([C@H](C)CO)C[C@@H](C)[C@H](CN(C)Cc2ccc4c(c2)OCO4)O3)cc1 | active: 104%
31 | CC(C)C#Cc1ccc2c(c1)O[C@H](CN(C)C(=O)C1CCCCC1)[C@@H](C)CN([C@@H](C)CO)S2(=O)=O | inconclusive: 95.5%
32 | C[C@@H]1CCCCO[C@@H](CN(C)Cc2ccc(Cl)c(Cl)c2)[C@H](C)CN([C@@H](C)CO)C(=O)c2cc(NS(=O)(=O)c3cccs3)ccc2O1 | inconclusive: 128%
33 | COc1ccc(S(=O)(=O)N(C)C[C@H]2Oc3ccc(NC(=O)Nc4ccc(C(F)(F)F)cc4)cc3C(=O)N([C@H](C)CO)C[C@H]2C)cc1 | inconclusive: 125%
34 | CC(C)C#Cc1ccc([C@H]2[C@@H](C#N)N(C(=O)c3ccccn3)[C@@H]2CO)cc1 | inconclusive: 95.4%
35 | C[C@H](CO)N1C[C@H](C)[C@@H](CN(C)Cc2ccc3c(c2)OCO3)OCCCC[C@H](C)Oc2ccc(NC(=O)Nc3cccc4ccccc34)cc2C1=O | inconclusive: 96.7%
36 | C[C@H]1CCCCO[C@@H](CN(C)Cc2ccc(C(F)(F)F)cc2)[C@@H](C)CN([C@@H](C)CO)C(=O)c2cc(NC(=O)Nc3cccc4ccccc34)ccc2O1 | inconclusive: 123%
